Data published in PubChem BioAssay AID493208 (National Center for Advancing Translational Sciences (NCATS), 2011).
Screen size: about 44,000 compounds; about 340 (0.77%) were called active. Not shown: some 5% with an inconclusive outcome. The call rests on the fitted dose curve; in most records, active means well fitted inhibition curve with a large enough effect; inconclusive means small, poorly fitted or top-dose-only effect; inactive means flat fitted curve, though single readings scatter. The list shows a part of the results.

Assay: Acumen qHTS Assay for Inhibitors of the mTORC1 Signaling Pathway in MEF (Tsc2-/-, p53-/-) Cells: Sytravon;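 further: plate controls were DMSO for no effect and rapamycin for full effect; nearly all actives have a fitted effect of over 50% in size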
Settings: phospho-rpS6 immunofluorescence/PI, 24 h; series mostly up to 38.3 µM; activity change, negative = inhibition: at the top concentration
How it was run: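 Readout is phospho-S6 Alexa 488 signal normalized to PI per well, reported as % active cells with thresholds set from rapamycin (7.5 nM) and DMSO controls. Cells: Tsc2-/-, p53-/- MEFs, 24 hrs compound at 37 C; PI cell number serves as viability.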

Activity change, negative = inhibition, inactive:
COc1ccccc1NC(=O)c1cc2c([nH]c1=O)CC(C)(C)CC2=O 15.1%, Cc1ccc(C)c(NC(=O)Cn2c(=O)ccc3cc(S(=O)(=O)N4CCCC4)ccc32)c1 0.585%, O=C(NCc1cccs1)c1ccc(CSc2nc3cccnc3n2Cc2ccccc2)cc1 -4.88%, Cc1ccccc1NC(=O)c1ccc(F)c(S(=O)(=O)N(C)C2CCCCC2)c1 0%, COc1ccc(NC(=O)c2sc3nc4c(cc3c2N)CCCCCC4)cc1OC -7.13%, CC1Cc2cc(S(=O)(=O)N(C)c3ccc(Br)cc3)ccc2N1C(=O)C1CC1 (centres undefined) -12.7%, Fc1ccc(Cc2cn3cc(-c4ccc(Cl)cc4)nc3s2)cc1 -1.84%, COc1ccc(NC(=O)C2CCCN(S(=O)(=O)c3cccs3)C2)cc1 (centres undefined) 5.71%, CCC1CCCCN1CCCNC(=O)c1cc2c(=O)n(CC)c3ccccc3c2s1 (centres undefined) -2.78%, CCN1CCN(C(c2ccccc2)c2c(O)cc(C)n(Cc3ccco3)c2=O)CC1 (centres undefined) 1.35%, COc1ccc(-c2nnc3c4ccccc4c(-c4ccccc4)nn23)cc1 7.21%, CCOc1ccc(CCNC(=O)c2cccc(-n3c(C)nc4cccnc43)c2)cc1 -1.85%, COC(=O)c1c(N)n(-c2ccc(OC)c(Cl)c2)c2nc3ccccc3nc12 2.48%, O=C(Nc1ccccc1F)c1ccc(-c2ccccc2)s1 0.811%, CCOC(=O)c1nnn(CC(=O)NC(=O)Nc2cccc(CC)c2)c1C(=O)OCC 5.98%, CCN(CC)C(=O)c1sc2c(c1C)c(=O)n(-c1ccc(Cl)c(Cl)c1)c(=O)n2CC(=O)Nc1cccc(OC)c1 3.26%, O=C(COc1ccc(Cl)cc1)NCCc1csc(-c2ccc(F)cc2)n1 1.28%, O=C(Nc1ccc(F)cc1Cl)C1Cc2ccccc2N1C(=O)c1ccccc1 (centres undefined) 0%, O=C(CCn1nc(-c2ccc(Cl)cc2)c2ccccc2c1=O)Nc1ccc(OC(F)(F)F)cc1 -9.88%, Cc1ccc(Cl)cc1N1CCN(C(=O)C2CCN(S(=O)(=O)c3ccc4c(c3)oc(=O)n4C)CC2)CC1 -18.6%, CC(=O)c1cccc(NC(=O)c2nc3ccccc3nc2N2CCCCC2)c1 -0.761%, COc1ccc(OC)c(CNC(=O)C2CCN(c3ncnc4c3nc3n4CCCCC3)CC2)c1 -4.02%, COC(=O)c1cc(S(=O)(=O)NCC2CCN(Cc3ccccc3F)CC2)c[nH]1 -0.273%, Cc1cc(C)c2c(n1)nn1c(C)c(CCC(=O)NCc3ccc(Cl)cc3)c(C)nc21 -3.9%, CN1C(=O)C2(c3ccccc31)N(c1ccc(F)c(Cl)c1)C(=O)CS2(=O)=O (centres undefined) 0%, O=C(Nc1cc(F)ccc1F)c1cc2nc(-c3ccco3)cc(C(F)(F)Cl)n2n1 -1.11%, CCC(=O)N1CCc2cc(S(=O)(=O)CCC(=O)N3CCN(c4ccc(C(C)=O)cc4)CC3)ccc21 2.36%, CCOc1ccc(-c2cn3c(n2)sc2cc(C(=O)NCCc4ccc(OC)c(OC)c4)ccc23)cc1 2.49%, Cc1ccc(C2=NN(CC(=O)NCCc3ccc(Cl)cc3)C(=O)CC2)cc1 0%, COc1ccc(CCNC(=O)CCn2c(=O)c3cccn3c3cccnc32)c(OC)c1OC 4.25%, Cc1cccc(NC(=O)N2CCC(n3c(C)nc4cccnc43)CC2)c1 3.68%, O=C(CSc1nccn1Cc1ccccc1)Nc1ccc2c(c1)OCO2 -1.07%, CCOC(=O)N1CCC(NC(=O)c2ccc3c(c2)N(Cc2cc(C)ccc2C)C(=O)c2ccccc2S3=O)CC1 (centres undefined) -15.6%, CCC(C)(C)NC(=O)Cn1c(=O)ccc2cc(S(=O)(=O)N3CCC(C)CC3)ccc21 2.9%, CCOc1cc(C(=O)NCCc2csc(-c3ccc(C)cc3)n2)cc(OCC)c1OCC -1.19%, CN(C(=O)c1cc2c(=O)n3ccccc3nc2n1C)c1ccccc1 3.23%, CC(=O)Nc1nnc(SCc2cc(=O)c3cccc(Cl)c3[nH]2)s1 1.28%, CCOc1ccc(CCNC(=O)Cn2nnc(-c3ccc(C(F)(F)F)cc3)n2)cc1OCC -1.9%, Cn1cc(CCCC(=O)NCc2ccccc2Cl)c2ccccc21 9.43%, CCOC(=O)c1c(NC(=O)CSc2nc(-c3ccccc3)cc(C(F)(F)F)n2)sc(C)c1C -1.28%, CCOc1ccc(OCC)c(Nc2cc(C)nc3nc(-c4ccco4)nn23)c1 0%, CC(=O)N1c2ccc(S(=O)(=O)N3CCCCCC3)cc2CC1C(=O)NCc1ccccc1F (centres undefined) 13.9%, Cc1ccc(CNc2ccc(-c3nc(-c4ccccn4)no3)cc2[N+](=O)[O-])cc1 -7.75%, O=C(c1ccc([N+](=O)[O-])cc1)N1CCN(c2ccc(Nc3ccccc3)nn2)CC1 0.275%, CCOc1ccc(CCNC(=O)CN2C(=O)c3cccnc3Oc3ccc(Cl)cc32)cc1 -11.8%, CCOC(=O)c1c(S(=O)(=O)N2CCC(C(=O)Nc3ccc(OCC)cc3)CC2)c(C)n(C)c1C -6.3%, CCCCN(CCCC)CCNC(=O)c1cn(C)c2ccc(S(=O)(=O)N3CCCC3)cc2c1=O 4.32%, COc1ccc(OC)c(NC(=O)N2c3ccccc3Sc3ccccc32)c1 1.9%, CCc1ccc(C2c3c(-c4cc(C)ccc4O)n[nH]c3C(=O)N2Cc2cccnc2)cc1 (centres undefined) 1.77%, Cc1ccc(OCc2nc(-c3ccc(C(=O)N4CCN(c5ccccc5)CC4)cc3)oc2C)cc1 -8.9%, O=C(NCc1ccccc1Cl)c1ccc(Nc2nc3ccccc3n3nnnc23)cc1 -7.36%, Cc1c(NC(=O)Nc2ccc(F)c(Cl)c2)c(=O)n(-c2ccccc2)n1C -4.95%, Cc1nn(CCC(=O)N2CCN(c3ccccc3)CC2)c(C)c1S(=O)(=O)N1CCCC1 -1.24%, CCc1cnc2c(c1SCC(=O)N1CCC(C)CC1)c(=O)n(C)c(=O)n2C 0.41%, Cc1ccc(-n2nc(C)c3c(C(=O)NCc4ccc(F)cc4)cc(C)nc32)cc1 0%, Cc1cccc(N2CC(C)Cn3c2nc2c3c(=O)n(CC(=O)O)c(=O)n2C)c1 (centres undefined) -1.59%, CCc1cccc(NC(=O)CCc2nc3cccnc3n2-c2ccccc2)c1 0.392%, COCCNC(=O)c1cccc(Nc2nc3ccccc3n3nnnc23)c1 0%, CSc1ccc(CCNC(=O)c2ccc(CS(=O)(=O)c3ccc(Br)cc3)o2)cc1 -11.3%, O=C(Nc1ccc(F)cc1F)c1cc2c(=O)n3ccccc3nc2s1 -16.4%, CCOc1cc(CNC(=O)c2ccc3c(c2)N(C)C(=O)C2CCCCN32)cc(OCC)c1OCC (centres undefined) -0.594%, CCOC(=O)N1CCc2c(sc(NCc3ccc(N(C)C)cc3)c2C(=O)Nc2ccc(OC)cc2)C1 13.2%, CC1CCc2c(sc(NC(=O)c3ccc(Cl)cc3Cl)c2C#N)C1 (centres undefined) 4.63%, COc1ccc(NC(=O)CCc2c(C)nc3c(c2C)c(=O)n(C)c(=O)n3C)cc1OC 2.16%, O=C1N(Cc2cccc(C(F)(F)F)c2)c2ccccc2S(=O)(=O)N1c1cccc(Cl)c1 -0.155%, COc1ccc(CNC(=O)c2cc3cc(S(=O)(=O)N4CCCCC4)ccc3n2C)c(OC)c1 -1.1%, Cc1c(Cl)cccc1N1C(N)=C(C#N)C(c2cc(CN3CCOCC3)cs2)C2=C1CCCC2=O (centres undefined) -2.86%, O=c1c2sc3ccccc3c2n(Cc2cccc(C(F)(F)F)c2)c(=O)n1Cc1ccccc1 -4.36%, CCN(CC)C(=O)CSc1nc2cc3c(cc2c(=O)n1CCCCCC(=O)NCCc1ccc(OC)c(OC)c1)OCO3 -0.0959%, COCCNC(=O)CCc1c(C)nc2c(c(C)nn2-c2ccc(C)cc2)c1C 0.636%, COc1ccc(CNC(=O)c2ccc3c(c2)N(Cc2ccccc2F)C(=O)c2ccccc2S3(=O)=O)cc1 0.0888%, CCOc1ccc(NC(=O)c2c(NCc3sccc3C)sc3c2CCCCC3)cc1 -8.96%, Cc1cc(F)ccc1NC(=O)CN(C)S(=O)(=O)c1ccc(C(=O)N2CCOCC2)s1 6.84%, CCCN(CCC)c1nc(-c2ccccc2F)nc2ccccc12 1.54%, CCc1ccccc1NC(=O)CSC1=Nc2ccccc2C2=NC(Cc3ccccc3)C(=O)N12 (centres undefined) 0%, COc1ccc(OCc2ccc(-c3nc(C#N)c(N4CCN(c5cccc(Cl)c5)CC4)o3)o2)cc1 -1.64%, O=C(COc1ccc([N+](=O)[O-])cc1)Nc1cccc2cccnc12 -2.47%, COc1cc(NC(=O)C2CCCN(S(=O)(=O)c3ccc4c(c3)CCCC(=O)N4)C2)cc(OC)c1 (centres undefined) -2.05%, COc1cc(Cl)c(C)cc1NC(=O)Cn1ncc2c(=O)oc3ccccc3c21 -0.975%, CCC(C(=O)OC)n1cnc2c(cnn2-c2ccc(F)cc2)c1=O (centres undefined) 6.43%, COc1ccc(-c2nc(SCC(=O)c3ccc(OC)c(Br)c3)n[nH]2)cc1 -0.284%, CSc1ncc(Cl)c(C(=O)Nc2ccc(S(=O)(=O)N3CCCC(C)C3)cc2)n1 (centres undefined) -14.9%, CCOc1cccc(C2c3[nH]c4ccccc4c3CCN2C(=O)CCC2CCCC2)c1 (centres undefined) 5.28%, Cc1cc(NC(=O)NCc2ccc3c(c2)CCN3C(=O)c2ccccc2)ccc1Br 1.2%, CCOc1ccc(S(=O)(=O)c2cn(Cc3ccccc3)c3ccc(OCC)cc3c2=O)cc1 1.61%, CC(C)(C)OC(=O)N1CCC(c2c(C(=O)NCc3ccco3)cnn2-c2ccccc2)CC1 0.811%, Cc1cc(=O)n2nc(N3CCC(C(=O)NCc4ccccc4)CC3)sc2n1 3.18%, Cc1ccc(NC(=O)Cn2cnc3nc4c(cc3c2=O)CCCC4)cc1Cl 1.37%, CCc1ccc(CNC(=O)c2cnc3sc(N4CCCCC4)nn3c2=O)cc1 -10.4%, Cc1cccc(C(=O)NC(=O)Nc2ccc(-c3cc(C(F)(F)F)nn3-c3ccccc3)cc2)c1 -4.89%, CCn1c(=O)cc(SCC(=O)NCc2ccccc2OC)c2ccccc21 -3.87%, COc1ccc2cc(C(=O)NCc3ccc4c(c3)CCN4C(=O)c3ccccc3)[nH]c2c1 -6.84%, COc1ccc(C(=O)Nc2ccc(OCc3cc(=O)n4ccsc4n3)cc2)cc1OC 0.216%, O=C(NCc1cccnc1)C(=O)NCC(c1cccnc1)N1CCN(c2ccccc2F)CC1 (centres undefined) -6.78%
